Experimental data reported in the antibiotic and cytotoxicity screens of Wong et al. (2023).
This is one part of the list.

Legend:
HSkMC = human skeletal muscle cells; assay: cytotoxicity call (relative viability < 0.9); conditions: 10 µM
HepG2 = assay: cytotoxicity call (relative viability < 0.9); conditions: 10 µM
S. aureus RN4220 = assay: growth inhibition call (relative growth <= 0.2); conditions: 50 µM

| SMILES | cytotoxicity call (HSkMC) | cytotoxicity call (HepG2) | growth inhibition call (S. aureus RN4220) |
| --- | --- | --- | --- |
| Cc1c(C)c2ccc(O[C@@H]3O[C@H](CO)[C@H](O)[C@H](O)[C@H]3O)cc2oc1=O | inactive | inactive | inactive |
| O=C(CCCCCCC(=O)Nc1ccc([C@H]2O[C@@H](CSc3ccncc3)C[C@H](c3ccccc3)O2)cc1)NO | inactive | inactive | inactive |
| CCN1CCN(C2CCN(Cc3cc(=O)n(C)c(=O)n3C)CC2)C1=O | inactive | inactive | inactive |
| COc1ccc(C(C)C(=O)c2ccc(O)cc2O)cc1 (stereo not given) | inactive | inactive | active |
| C[C@@H]1CN([C@@H](C)CO)C(=O)c2cc(NC(=O)Nc3ccc4c(c3)OCO4)ccc2O[C@@H](C)CCCCO[C@H]1CN(C)C(=O)C1CCCCC1 | inactive | inactive | inactive |
| CC(C)(C)C(=O)OCOP(=O)(OCOC(=O)C(C)(C)C)C(C)(Oc1ccc(O)cc1)P(=O)(OCOC(=O)C(C)(C)C)OCOC(=O)C(C)(C)C | inactive | active | inactive |
| C[C@H]1CCCCO[C@@H](CN(C)S(=O)(=O)c2ccccc2)[C@@H](C)CN([C@@H](C)CO)C(=O)c2cc(NC(=O)NC3CCCCC3)ccc2O1 | inactive | inactive | inactive |
| C[C@@H](O)CO | inactive | inactive | inactive |
| C[C@@H]1CN([C@H](C)CO)C(=O)c2cccc(NC(=O)C3CCOCC3)c2O[C@H]1CN(C)S(=O)(=O)c1ccc(Cl)cc1 | inactive | inactive | inactive |
| Cc1noc(C)c1NC(=O)N(C)C[C@@H]1OCCCC[C@@H](C)Oc2ccc(NC(=O)C3CCCCC3)cc2C(=O)N([C@@H](C)CO)C[C@H]1C | inactive | inactive | inactive |
